Assay results taken from paper PMC4336329 (PLoS ONE, 2015).
Screen size: about 310,000 compounds; about 2,200 (0.71%) showed an effect of 50% or more. Effects have a minus sign here. This is one part of the list.

Each compound was assayed against human ether-à-go-go-related gene (hERG) potassium channel (human, UniProt Q12809) (assay: primary screen, population patch clamp on CHO cells stably expressing hERG).
Chain of human ether-à-go-go-related gene (hERG) potassium channel (Q12809 whole entry, looked up): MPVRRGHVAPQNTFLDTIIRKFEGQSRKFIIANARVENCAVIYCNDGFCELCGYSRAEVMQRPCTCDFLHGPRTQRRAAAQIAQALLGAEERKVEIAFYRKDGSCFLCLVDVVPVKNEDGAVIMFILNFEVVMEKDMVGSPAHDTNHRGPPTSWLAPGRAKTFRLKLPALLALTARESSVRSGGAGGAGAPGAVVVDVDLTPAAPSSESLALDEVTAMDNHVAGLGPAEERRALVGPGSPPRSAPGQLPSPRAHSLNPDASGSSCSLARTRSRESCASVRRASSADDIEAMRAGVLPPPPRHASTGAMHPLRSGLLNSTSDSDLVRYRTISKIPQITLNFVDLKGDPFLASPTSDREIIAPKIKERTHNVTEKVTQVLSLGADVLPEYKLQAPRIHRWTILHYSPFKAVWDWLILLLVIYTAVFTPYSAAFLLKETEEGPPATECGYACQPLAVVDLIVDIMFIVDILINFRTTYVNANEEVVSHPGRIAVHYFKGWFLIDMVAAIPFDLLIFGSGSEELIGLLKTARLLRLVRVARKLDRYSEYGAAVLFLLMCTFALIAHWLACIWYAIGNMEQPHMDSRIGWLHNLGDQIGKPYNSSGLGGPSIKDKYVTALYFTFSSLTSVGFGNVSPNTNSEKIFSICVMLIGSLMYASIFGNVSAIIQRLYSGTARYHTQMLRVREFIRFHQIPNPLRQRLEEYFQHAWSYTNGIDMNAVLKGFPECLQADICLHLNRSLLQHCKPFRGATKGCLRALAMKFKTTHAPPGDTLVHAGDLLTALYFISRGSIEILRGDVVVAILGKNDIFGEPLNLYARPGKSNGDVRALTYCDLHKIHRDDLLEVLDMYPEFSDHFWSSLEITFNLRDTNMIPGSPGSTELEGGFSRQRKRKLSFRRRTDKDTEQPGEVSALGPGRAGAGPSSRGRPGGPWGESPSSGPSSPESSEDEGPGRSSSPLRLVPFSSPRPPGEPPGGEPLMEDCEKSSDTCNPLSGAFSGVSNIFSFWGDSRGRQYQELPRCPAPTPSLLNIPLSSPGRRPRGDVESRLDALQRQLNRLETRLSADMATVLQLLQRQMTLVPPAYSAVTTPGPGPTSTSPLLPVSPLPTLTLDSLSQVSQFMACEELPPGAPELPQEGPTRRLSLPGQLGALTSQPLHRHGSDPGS

| Structure (SMILES) | hERG current change (%, negative = inhibition) at 1uM |
| --- | --- |
| OCCNCc1ccc(OC2CCCC2)cc1 | 17.1% |
| Cc1cc(C)cc(NC(=O)CN2CCN(C(=O)C3CCCO3)CC2)c1 (stereo not drawn) | 8.76% |
| Clc1ccc(Br)cc1-c1nc(-c2ccncc2)no1 | 11% |
| CCN1C(=O)/C(=c2\sc3nc(=O)c(Cc4ccccc4)nn3c2=O)c2ccccc21 | 12.1% |
| CCOc1ccc(NC(=S)NC(=O)c2c(Br)cnn2C)c([N+](=O)[O-])c1 | 13.5% |
| O=C1NC2=C(C(=O)CCC2)C(c2ccc([N+](=O)[O-])cc2)N1 (stereo not drawn) | 13.3% |
| CC(=O)Nc1ccc(S(=O)(=O)N2c3ccccc3NC(=O)CC2C)c(Cl)c1 (stereo not drawn) | 15% |
| CSc1ccccc1NC(=O)Nc1ccccc1Cl | 10.5% |
| COc1cc(/C=C2/N=C(c3ccccc3)OC2=O)c(F)cc1OCc1ccccc1 | 14.3% |
| CC(=O)Nc1cccc(NC(=O)COc2nncc3ccccc23)c1 | 5.26% |
| S=c1nc[nH]c2c1[nH]c1ccc(Cl)cc12 | 11.5% |
| Cc1ccccc1-n1nc(C(=O)O)cc1-c1ccccc1 | 1.01% |
| CCC1CO/C(=C(\C(=C(Cl)Cl)N2CCOCC2)[N+](=O)[O-])N1 (stereo not drawn) | 8.01% |
| Cc1ccc(C2=NN(CC(=O)NCc3ccco3)C(=O)CC2)cc1 | -2.1% |
| O=C(NC1CCCN(Cc2ccccc2F)C1)c1cccs1 (stereo not drawn) | -3.65% |
| Cn1c2ccccc2c(=O)n2c(=O)c3ccccc3cc12 | -2.16% |
| O=C(CCn1cccc1)NCc1ccc2c(c1)OCO2 | 14.3% |
| CC(C)(C)NC(=O)/C=C/c1cccc(C(F)(F)F)c1 | 7.22% |
| Cc1cc(C)n2nc(SCC(=O)NC3CCCC(C)C3C)nc2n1 (stereo not drawn) | 17.8% |
| COc1ccc(CCN(C(=O)C(F)(F)F)C(C(=O)NC2CCCCC2)c2ccc(C)s2)cc1OC (stereo not drawn) | 20.5% |
| O=C(c1ccco1)N(CCC(c1ccccc1)c1ccco1)Cc1ccccc1 (stereo not drawn) | 4.3% |
| O=C1CCC(=O)N1c1ccc(NC2CCN(Cc3ccccc3)CC2)c([N+](=O)[O-])c1 | 9.1% |

| Structure (SMILES) | hERG current change (%, negative = inhibition) at 1uM |
| --- | --- |
| CCCCN(CCCC)S(=O)(=O)c1ccc(C(=O)Nc2nnc(COC)o2)cc1 | -1.96% |
| CC(=O)N1CCN(CC(=O)Nc2cc([N+](=O)[O-])ccc2Cl)CC1 | 1.54% |
| COc1cc(NC(=O)C2CC(=O)N(CCc3ccccc3)C2)cc(OC)c1 (stereo not drawn) | 9.18% |
| CCc1nnc(NS(=O)(=O)c2ccc(NC(=O)c3ccc(S(=O)(=O)N(CC)CC)cc3)cc2)s1 | 8.78% |
| Cc1nc2ccccc2n1C1CCN(Cc2nnnn2CCc2ccccc2)CC1.Cl | -33.3% |
| O=C(Cc1cc(=O)[nH]c(=O)[nH]1)NCc1ccc(Cl)cc1 | 12% |
| O=C(NC1CCCc2ccccc21)c1cc(Cl)ccn1 (stereo not drawn) | 17.8% |
| CC1CCCCN1S(=O)(=O)c1ccc(C(=O)Nc2nnc(-c3ccco3)o2)cc1 (stereo not drawn) | 6.76% |
| N#CC1=C(N)C(C#N)(C#N)[C@H](c2c(F)cccc2F)[C@H]2CC3(CC=C12)OCCO3 | -1.32% |
| COc1ccccc1C(=O)N/C(=C/c1ccc(Br)cc1)C(=O)NCC(=O)O | 5.89% |
| Cc1nc(C(=O)N(C)C)nn1-c1ccc([N+](=O)[O-])cc1 | 7.45% |
| CCOCC(=O)Nc1ccc(-c2cn3cccnc3n2)cc1 | -6.78% |
| COc1cc(OC)cc(-c2sc3ccc(OC)cc3c2C#CC(C)(C)O)c1 | 16.1% |
| CC(C)c1ccccc1OCC(=O)NN1C(=O)c2ccccc2C1=O | 13.3% |
| O=C(c1ccccc1)c1ccc(OCCO)cc1 | 17.7% |
| CCOC(=O)Cc1nn(C(C)C)c(=O)c2ccccc12 | 19% |
| CCCCCCSc1ccc(-c2nc3ccc(C)cn3c2NCc2ccccc2)cc1.O=C(O)C(F)(F)F | 11.1% |
| COc1ccccc1-c1nc(C(=O)NCC2CCCO2)cc2c1[nH]c1ccccc12 (stereo not drawn) | 6.04% |
| COc1ccc(-c2ccc(C#N)c(SCC(=O)NC3CC3)n2)cc1OC | 14.7% |
| N#C/C(=C/c1ccc(Sc2nc3ccccc3[nH]2)o1)c1ccccc1F | -0.974% |
| CCN(CC)C(=O)CSc1nc2c(sc(=S)n2-c2ccccc2)c(=O)n1-c1ccc(OC)c(OC)c1 | 9.98% |
| COc1ccc(CCNC(=O)Cc2cc(=O)[nH]c(=O)[nH]2)cc1OC | 0.979% |

| Structure (SMILES) | hERG current change (%, negative = inhibition) at 1uM |
| --- | --- |
| Cc1ccc(S(=O)(=O)N2CCN(C(=O)CSCc3ccc(C(C)C)cc3)CC2)cc1 | -0.929% |
| Cc1nn(CCOc2ccccc2)c(=O)n1-c1cccc(F)c1 | 5.48% |
| CCn1c(CNc2cccc(Cl)c2)nnc1SCC(=O)OC1CCCCC1 | -0.937% |
| O=C(O)CSc1nc(SCc2ccccc2Cl)nc2c1CCCC2 | 14.9% |
| Cc1nnc(NC(=O)CN2C(=O)NC3(CCCC3)C2=O)s1 | 14.6% |
| COc1cc(CCC(=O)OCC(=O)NCC2CCCCC2)cc(OC)c1OC | 6.32% |
| CCn1c(CSc2nc3ccccc3s2)nnc1SCC(=O)NCC(=O)OC | -5.24% |
| Cc1nc2c(C(=O)NCc3ccc4c(c3)OCO4)c[nH]n2c(=O)c1Cl | 1.43% |
| CCCc1cc(=O)oc2cc(C)cc(OCC(=O)NCC(O)c3ccccc3)c12 (stereo not drawn) | 13.5% |
| CCOC(=O)/C=C1\SCC(=O)N1CC(=O)NC(C)c1ccccc1 (stereo not drawn) | -0.731% |
| CCCn1nc2cc(C(=O)NCc3ccc(C)cc3)ccc2c1OCC | 13.7% |
| CCCc1cc(=O)oc2cc(OCC(=O)NC3CC(C)(C)NC(C)(C)C3)ccc12 | 14.3% |
| CN(Cc1ccccc1C#N)S(=O)(=O)c1cccs1 | 16% |
| CN1CCN(C(=O)C2=C[C@@H](c3coc4ccccc4c3=O)C[C@@H](OCCCCO)O2)CC1 | 10.8% |
| N#C/C(=C\c1ccc(-c2cccc([N+](=O)[O-])c2)o1)C(=O)Nc1nc(-c2cccs2)cs1 | 9.51% |
| O=C(Nc1cc2c(=O)n(-c3ccc(Oc4ccccc4)cc3)ccc2oc1=O)c1ccccc1 | 10.2% |
| CC1CCN(C(=O)C2CCN(S(=O)(=O)N3CCC4(CC3)OCCO4)CC2)CC1 | 19.8% |
| CCOc1ccc(-c2ccc(SCC(=O)Nc3nnc(CC)s3)nn2)cc1 | 19% |
| Cc1ccc(S(=O)(=O)Oc2ccc(/C=C3\N=C(c4cccc(C)c4)OC3=O)cc2)cc1 | 3.04% |
| CC(C)(C)c1ccc(C(=O)N2CCN(c3ccc(N4CCOCC4)nn3)CC2)cc1 | 1.65% |
| C=CCNC(=O)c1c(N)n(CCN2CCOCC2)c2nc3ccccc3nc12 | 5.58% |
| COC(=O)CCCC(=O)N(C)CC1CCCN(CCc2ccccc2C)C1 (stereo not drawn) | -12.7% |

| Structure (SMILES) | hERG current change (%, negative = inhibition) at 1uM |
| --- | --- |
| CCOC(=O)C1=C(CC)Nc2ccccc2N/C1=N\S(=O)(=O)c1ccccc1F | -1.17% |
| O=C(CSc1ccncc1)Nc1ccc(S(=O)(=O)Nc2nccs2)cc1 | 10.4% |
| O=C(NCc1ccccc1)c1ccc2ccccc2n1 | 20.1% |
| Cc1cc(C)cc(-n2c(C)cc(/C=N/NC(=O)CSc3ncccn3)c2C)c1 | 16.8% |
| Cc1ccc(NC(=O)CSc2nnc(Cc3csc(C)n3)o2)cc1 | 7.32% |
| Cc1nc(Nc2nc3ccccc3o2)nc(C)c1C(=O)Nc1ccc(F)cc1 | 5.93% |
| O=C(CC(c1ccccc1)c1ccccc1)NCC1CCCO1 (stereo not drawn) | 17.7% |
| Cc1ccc(CCNC(=O)C2CC(c3ccccc3C(F)(F)F)=NO2)cc1 (stereo not drawn) | 7.46% |
| O=C(/C=C/c1ccccc1)NCC(=O)N/N=C/c1cccs1 | -11.1% |
| O=C(O)CCCC(=O)Nc1cccc(-c2nc3ccccc3[nH]2)c1 | 18.9% |
| S=c1[nH]nc(-c2cc(-c3ccccc3)n[nH]2)n1/N=C/c1ccc(Cl)cc1 | 6.95% |
| COc1ccccc1N1CCN(C(=O)c2cc3cc(Br)ccc3oc2=O)CC1 | 6.77% |
| COc1ccc(F)cc1S(=O)(=O)N1CCC(C(N)=O)CC1 | 11.5% |
| COCCCNC(=S)N1CCN(S(=O)(=O)c2ccc(OC)cc2)CC1 | 6.33% |
| O=C(NCc1ccccn1)C1Nc2ccc(C(F)(F)F)cc2C2C=CCC12 (stereo not drawn) | 10.5% |
| CCCCCOC(=O)C1=C(C)NC(=O)NC1c1ccc(N(C)C)cc1 (stereo not drawn) | 10.3% |
| COc1ccc(Oc2c(C)oc3cc(OC(=O)N(C)C)ccc3c2=O)cc1 | 15% |
| CN(C)C(=O)c1cc(S(=O)(=O)N(C)C)c(Cl)cc1N1CCCC1 | 10% |
| CC1NC2(C(=O)N(Cc3ccccc3)c3ccccc32)C2C(=O)N(c3ccccc3)C(=O)C12 (stereo not drawn) | 11.7% |
| COc1ccc(CNCC(O)COCc2cccs2)cc1 (stereo not drawn) | -19.5% |
| O=C(c1cc(-c2ccccc2)nn1-c1ccccc1)N1CCN(S(=O)(=O)c2cccc(F)c2)CC1 | 14.6% |
